We go through 55 molecules from PMC4336329 (PLoS ONE, 2015).

About 14,000 (4.5%) of roughly 310,000 compounds showed an effect of 50% or more. Effects have a minus sign here. The list shows a part of the results.
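Also: peak tail current of the secondary pulse compared with the same well before compound.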

The target in the test is human ether-à-go-go-related gene (hERG) potassium channel (human, UniProt Q12809). Put plainly: primary screen, population patch clamp on CHO cells stably expressing hERG.
Chain of human ether-à-go-go-related gene (hERG) potassium channel (Q12809 whole entry, looked up): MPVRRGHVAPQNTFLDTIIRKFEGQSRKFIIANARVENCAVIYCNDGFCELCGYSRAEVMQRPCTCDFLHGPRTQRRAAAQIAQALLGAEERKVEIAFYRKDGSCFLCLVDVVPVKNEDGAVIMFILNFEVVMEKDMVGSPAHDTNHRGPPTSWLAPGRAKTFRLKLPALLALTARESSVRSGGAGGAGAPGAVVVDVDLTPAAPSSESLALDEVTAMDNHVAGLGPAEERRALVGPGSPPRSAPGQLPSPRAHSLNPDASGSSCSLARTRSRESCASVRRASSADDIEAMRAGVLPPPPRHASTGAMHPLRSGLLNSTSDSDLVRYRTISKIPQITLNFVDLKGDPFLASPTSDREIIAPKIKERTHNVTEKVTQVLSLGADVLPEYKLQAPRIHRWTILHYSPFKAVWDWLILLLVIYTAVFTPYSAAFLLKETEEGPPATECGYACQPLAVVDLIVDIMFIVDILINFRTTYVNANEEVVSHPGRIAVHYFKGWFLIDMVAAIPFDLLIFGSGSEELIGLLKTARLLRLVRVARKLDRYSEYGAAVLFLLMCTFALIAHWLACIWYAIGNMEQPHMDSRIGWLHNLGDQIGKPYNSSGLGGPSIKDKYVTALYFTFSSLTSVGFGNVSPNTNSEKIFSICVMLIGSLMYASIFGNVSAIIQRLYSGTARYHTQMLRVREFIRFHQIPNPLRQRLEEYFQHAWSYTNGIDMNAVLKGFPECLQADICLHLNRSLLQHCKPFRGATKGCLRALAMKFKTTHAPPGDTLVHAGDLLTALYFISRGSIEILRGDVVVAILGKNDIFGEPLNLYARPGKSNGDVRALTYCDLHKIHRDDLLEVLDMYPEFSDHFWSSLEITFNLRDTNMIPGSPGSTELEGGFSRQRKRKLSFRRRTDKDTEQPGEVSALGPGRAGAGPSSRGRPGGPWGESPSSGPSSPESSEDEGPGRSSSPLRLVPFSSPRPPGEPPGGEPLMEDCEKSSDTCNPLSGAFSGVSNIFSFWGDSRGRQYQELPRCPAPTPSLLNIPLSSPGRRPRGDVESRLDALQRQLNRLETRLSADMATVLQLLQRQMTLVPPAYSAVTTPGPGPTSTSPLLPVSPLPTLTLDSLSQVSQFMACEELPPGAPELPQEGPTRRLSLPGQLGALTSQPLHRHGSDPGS
In the case of `O=[N+]([O-])c1ccc2c(c1)C(N1CCOCC1)/C(=C/COc1ccc(F)cc1)O2` (stereo not shown), the “hERG current change (%, negative = inhibition) at 10uM” value is recorded as -26%.

As to `CC(C)CNC(=O)COc1cccc(C(=O)NCc2ccccc2)c1`, the “hERG current change (%, negative = inhibition) at 10uM” value was -0.402%.

Turning to `Cc1ccc(C)c(NS(=O)(=O)c2c(C)nc3sccn3c2=O)c1`, the “hERG current change (%, negative = inhibition) at 10uM” value was -1.53%.

Turning to `CN(C)S(=O)(=O)N1CCN(C(=O)N2CCOCC2)CC1`, the “hERG current change (%, negative = inhibition) at 10uM” value is listed as 6.25%.

As to `CSc1ccc(Cl)c(C(=O)OCC(=O)N2CCOCC2)c1`, the “hERG current change (%, negative = inhibition) at 10uM” value was -1.27%.

As to `CCCc1c(O)nc(SCCN(CCC)CCC)[nH]c1=O.Cl`, the “hERG current change (%, negative = inhibition) at 10uM” value is reported as 0.0733%.

`CCOc1ccc(C2C(C#N)=C(N)SC(N)=C2C#N)c(OCC)c1`: the “hERG current change (%, negative = inhibition) at 10uM” value is recorded as 28.6%.

On to `COc1cccc(CNC(=O)CSc2nnc3c(n2)[nH]c2ccc(F)cc23)c1`, for which the “hERG current change (%, negative = inhibition) at 10uM” value is -30.3%.

Consider `COC(=O)C(C(=O)OC)c1ccc(NC(=O)c2cccc(Cl)c2)cc1`, for which the “hERG current change (%, negative = inhibition) at 10uM” value was determined as 11.3%.

As for `CCc1nnc(NC(=O)[C@@H](NC(=O)c2cccc(S(=O)(=O)N(CC)CC)c2)C(C)C)s1`, the “hERG current change (%, negative = inhibition) at 10uM” value is listed as -3.11%.

Consider `Cc1noc2ncc(C(=O)c3cc(F)ccc3O)cc12`, for which the “hERG current change (%, negative = inhibition) at 10uM” value came to 2.42%.

For the molecule `O=C(COc1ccccc1)Nc1cccc2c1CCCC2`, the “hERG current change (%, negative = inhibition) at 10uM” value is given as -7.72%.

Consider `CCN1CCCC1CNC(=O)c1ccc(N2CCCC2=O)cc1` (stereo not shown), for which the “hERG current change (%, negative = inhibition) at 10uM” value is recorded as -2.7%.

For the molecule `CCOCCCNC(=O)/C(C#N)=C/c1ccc(C)o1`, the “hERG current change (%, negative = inhibition) at 10uM” value is 0.165%.

As to `O=C(CNC(=O)c1ccccc1Cl)Nc1ccc(Br)cc1C(=O)c1ccccc1`, the “hERG current change (%, negative = inhibition) at 10uM” value is given as -9.65%.

Consider `Cc1cc(C)cc(NC(=O)CN2CCN(CCN=CC3=C(O)CC(C)(C)CC3=O)CC2)c1`, for which the “hERG current change (%, negative = inhibition) at 10uM” value is -49.9%.

Consider `C=C1CCN([C@@H](CC(C)C)C(=O)Nc2ccc(OC)cc2)S(=O)(=O)c2ccccc21`, for which the “hERG current change (%, negative = inhibition) at 10uM” value is given as -10.7%.

Consider `O=C(C1CCN(S(=O)(=O)N2CCOCC2)CC1)N1CCN(c2ccccc2)CC1`, for which the “hERG current change (%, negative = inhibition) at 10uM” value is -7.42%.

Consider `C[C@@H]1C=C[C@](Cc2ccccc2)(C(=O)NCCc2c[nH]c3ccccc23)N1C(=O)c1ccccc1`, for which the “hERG current change (%, negative = inhibition) at 10uM” value is recorded as -7.94%.

As for `CCc1nn(CCCN2CCN(c3cccc(Cl)c3)CC2)c(=O)n1CCOc1ccccc1`, the “hERG current change (%, negative = inhibition) at 10uM” value was -63.2%.

Turning to `CN1C(=O)c2ccc(NC(=O)c3cccc(N4C(=O)CCC4=O)c3)cc2C1=O`, the “hERG current change (%, negative = inhibition) at 10uM” value came to 4.17%.

Take `CC(OC(=O)c1ccncc1)C(=O)Nc1cccc([N+](=O)[O-])c1` (stereo not shown): the “hERG current change (%, negative = inhibition) at 10uM” value is recorded as -10.9%.

As for `Cc1ccc(C2=NCCn3c2c2ccccc2[n+]3[O-])cc1`, the “hERG current change (%, negative = inhibition) at 10uM” value is reported as -4.88%.

Turning to `NC(=O)c1ccccc1NC(=O)Nc1cccc2ccccc12`, the “hERG current change (%, negative = inhibition) at 10uM” value came out at 21.1%.

As for `c1ccc(-c2nnc(CN3CCCc4ccccc43)o2)cc1`, the “hERG current change (%, negative = inhibition) at 10uM” value was -19.4%.

Take `Cc1cc(C)nc(Sc2ccc3nnc(C(F)(F)C(F)(F)C(F)(F)F)n3n2)n1`: the “hERG current change (%, negative = inhibition) at 10uM” value amounted to 16.7%.

In the case of `Cc1ccc(C(=O)N/C(=C\c2ccc(-c3ccc(Br)cc3)o2)C(=O)NCCCN(C)C)cc1`, the “hERG current change (%, negative = inhibition) at 10uM” value was -80.3%.

For the molecule `Cc1ccc(OCCOc2ccc(Br)cc2/C=N\NC(N)=O)cc1`, the “hERG current change (%, negative = inhibition) at 10uM” value amounted to 15.9%.

With `COc1cccc(NC(=O)/C=C/c2ccc([N+](=O)[O-])cc2)c1`, the “hERG current change (%, negative = inhibition) at 10uM” value is listed as -19.5%.

Take `Nc1c(N(C(=O)Nc2ccc(Cl)c(Cl)c2)C2CCCC2)c(=O)[nH]c(=O)n1Cc1ccccc1`: the “hERG current change (%, negative = inhibition) at 10uM” value was 24.7%.

As for `COc1ccc(N2CCN(CCNC(=O)Nc3cccc(C)c3C)CC2)cc1`, the “hERG current change (%, negative = inhibition) at 10uM” value amounted to 2.59%.

Consider `O=C(N/N=C/c1cccc([N+](=O)[O-])c1)c1cc2ccccc2o1`, for which the “hERG current change (%, negative = inhibition) at 10uM” value stood at 17.5%.

Regarding `Cc1c([N+](=O)[O-])c(N)nn1C`, the “hERG current change (%, negative = inhibition) at 10uM” value was determined as 15.5%.

`Cc1cc(C)c(-c2cc(C(=O)Nc3cc(C)ccc3C)[nH]n2)c(O)c1`: the “hERG current change (%, negative = inhibition) at 10uM” value is reported as 17.3%.

In the case of `CCN1CCN(CC(=O)NC2CCCC2)C(=O)C1=O`, the “hERG current change (%, negative = inhibition) at 10uM” value is listed as -4.52%.

In the case of `CCN(CC)CCCNC(=O)c1cc(-c2ccc(O)cc2)on1`, the “hERG current change (%, negative = inhibition) at 10uM” value is reported as -37.3%.

Turning to `NS(=O)(=O)c1ccc(N/C=C\C(=O)c2ccncc2)cc1`, the “hERG current change (%, negative = inhibition) at 10uM” value is on record as -1.26%.

Turning to `COc1ccc(-c2nc3ccccc3[nH]2)cc1`, the “hERG current change (%, negative = inhibition) at 10uM” value is recorded as -10.5%.

As for `CCOC(=O)C1CCN(C(=O)C2CCN(S(=O)(=O)N3CCC4(CC3)OCCO4)CC2)CC1`, the “hERG current change (%, negative = inhibition) at 10uM” value is on record as 18.4%.

`CSc1nnc(-c2ccccc2SC)o1`: the “hERG current change (%, negative = inhibition) at 10uM” value is on record as 6.43%.

Turning to `Cc1cc(C)cc(NC(=O)CSCc2nc3c(nnn3Cc3ccc(F)cc3)c(=O)[nH]2)c1`, the “hERG current change (%, negative = inhibition) at 10uM” value was determined as 9.81%.

Regarding `CCC(=O)N1N=C(c2ccc(C)o2)CC1c1ccc(N(C)C)cc1` (stereo not shown), the “hERG current change (%, negative = inhibition) at 10uM” value is given as -2.39%.

In the case of `CC(O)c1cccc(NC(=O)Cc2cccc3ccccc23)c1` (stereo not shown), the “hERG current change (%, negative = inhibition) at 10uM” value is given as 16.9%.

As to `Nc1nc(NC(=O)c2cccs2)nn1-c1ccccc1`, the “hERG current change (%, negative = inhibition) at 10uM” value was determined as 4.89%.

Regarding `CSc1nc2c(c(=O)n1-c1ccccc1)SCC2`, the “hERG current change (%, negative = inhibition) at 10uM” value was determined as 6.28%.

For the molecule `CCN(CC(=O)Nc1ccc(Br)c(C)c1)CC(=O)NC(C)C`, the “hERG current change (%, negative = inhibition) at 10uM” value is recorded as -4.86%.

Consider `Cc1cc(C)nc(N2N=C(c3ccccc3)CC2=O)n1`, for which the “hERG current change (%, negative = inhibition) at 10uM” value was determined as 4.31%.

Take `Cc1nn(Cc2ccccc2Cl)c2sc(C(=O)NCc3ccc4c(c3)OCO4)cc12`: the “hERG current change (%, negative = inhibition) at 10uM” value is 3.08%.

As to `Cc1ccccc1OCCCCc1c(C)n[nH]c1C`, the “hERG current change (%, negative = inhibition) at 10uM” value is listed as 1.24%.

Turning to `COc1cc(/C=N/NC(=O)CNC(=O)c2cccs2)ccc1O`, the “hERG current change (%, negative = inhibition) at 10uM” value is on record as 2.5%.

With `COc1ccc(C(=O)CN2C(=O)c3ccccc3C2=O)cc1`, the “hERG current change (%, negative = inhibition) at 10uM” value came out at 7.16%.

On to `C#CCOCCOCCOCCNc1nc(N2CCN(C(=O)[C@H]([C@@H](C)CC)n3cc([C@@H](N)Cc4ccc(O)cc4)nn3)CC2)nc(N2CCN(C(=O)[C@H](Cc3cc4ccccc4[nH]3)n3cc([C@@H](N)CC(C)C)nn3)CC2)n1.Cl`, for which the “hERG current change (%, negative = inhibition) at 10uM” value stood at 20.4%.

Regarding `O=C(/C=C/c1ccc(S(=O)(=O)N2CCOCC2)cc1)NC(=S)NCCCn1ccnc1`, the “hERG current change (%, negative = inhibition) at 10uM” value is recorded as -39.1%.

In the case of `O=C(NCCN1CCCCC1)c1ccc(/C=N/O)nc1`, the “hERG current change (%, negative = inhibition) at 10uM” value came out at 13.6%.

As to `CN1C(=O)Cc2cc(S(=O)(=O)NCc3cccs3)ccc21`, the “hERG current change (%, negative = inhibition) at 10uM” value is given as 5.48%.
